Test results taken from PubChem BioAssay AID686970 (National Center for Advancing Translational Sciences (NCATS), 2013).
About 6,000 (1.7%) of roughly 360,000 compounds were called active. The shares of active, inactive and inconclusive entries below differ from those in the screen. The call rests on the fitted dose curve; in most records, active means well fitted cell-killing curve with a large enough effect; inconclusive means small, poorly fitted or top-dose-only effect, or effect the other way; inactive means flat fitted curve, though single readings scatter. Potencies of inconclusive entries are left out as doubtful fits.

test: qHTS for induction of synthetic lethality in tumor cells producing 2HG: qHTS for the HT-1080-NT fibrosarcoma cell line; details: HT-1080-NT fibrosarcoma viability, CellTiter-Glo ATP luminescence, 48 h; activity, negative = less viability: at 46.1 µM (top of the series) unless noted;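 further: NT is the 2HG producing partner of a matched IDH1 knockdown line; nearly all actives have a fitted effect of over 55% in size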;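 on activity, negative = less viability: 0% = DMSO-treated cells and -100% = media-only wells without cells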
Procedure, shortened: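 A 48-hour cytotoxicity screen used HT-1080-NT cells plated 2 hours before compound delivery. ATP-based CellTiter-Glo luminescence measured viability, normalized to DMSO and no-cell controls.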
Potency means the concentration at half of the fitted maximal effect; tags describe the fitted curve by direction and shape.

SMILES | Potency | activity, negative = less viability
COc1cc(C(=O)N(C)Cc2cccc(OC)c2OC)ccc1OCC(=O)Nc1cccc(C(F)(F)F)c1 | active: 8.2 µM | 
CCN(C[C@H]1N[C@@](CC)(C(=O)OC)[C@H]2C(=O)N(Cc3ccccc3)C(=O)[C@@H]12)C(=O)c1ccc(C(C)(C)C)cc1 | inconclusive [cytotoxic, single point] | 
COc1cccc(-c2cnc3c(NC(C)=O)cc(-c4ccccc4OC)cn23)c1 | inconclusive [cytotoxic, partial curve] | 
Cc1ccc(-n2ncc3c2CC(C)(C)CC3NC(=O)c2ccccn2)cc1 (stereo not given) | inconclusive [cytotoxic, single point] | 
Cc1nnc(SCC(=O)NC2CCCCC2)n1-c1ccccc1 | inactive | 
CCc1nc2c(OCCC3CCCCC3)cccn2c1N(C)C(=O)C(C)C | inconclusive [cytotoxic, single point] | 
O=C(/C=C1\NC2(CCCC2)Cc2ccccc21)N1CCOCC1 | inconclusive [cytotoxic, single point] | 
Cc1ccccc1OCCNc1cc(N2CC(C)NC(C)C2)ccc1[N+](=O)[O-] (stereo not given) | inconclusive [cytotoxic, single point] | 
COc1cc(/C=C2\SC(=O)N(CCN)C2=O)ccc1OS(=O)(=O)c1cc(C)ccc1C | inconclusive [cytotoxic, single point] | 
COCCNc1nc(SCC(=O)N2CCN(c3ccccc3OC)CC2)nc2ccccc12 | inconclusive [cytotoxic, single point] | 
COc1ccccc1C1CC(c2c(-c3ccccc3)c3cc(Cl)ccc3[nH]c2=O)=NN1S(C)(=O)=O (stereo not given) | active: 25.9 µM | 
C=CCN(C(=O)c1ccccc1)c1ccc(OC)cc1 | inconclusive [cytotoxic, single point] | 
Cc1cnc(C(=O)Nc2ccc(N3CCN(C(=O)OC(C)(C)C)CC3)cc2)cn1 | inconclusive [cytotoxic, full curve] | 
Cc1ccc2nc3n(c(=O)c2c1)-c1cc2ccccc2cc1C(=O)NC3Cc1ccc(O)cc1 (stereo not given) | active: 9.2 µM | 
Cc1sc(NC(=O)c2ccco2)c(C(=O)c2ccc(Cl)cc2)c1C | inactive | 
COc1ccc(NC(=O)COc2ccc3oc(=O)cc(C)c3c2)cc1 | inconclusive [cytotoxic, single point] | 
CCC(=O)Nc1c(C#N)c2nc3ccccc3nc2n1-c1ccccc1C | inactive | 
CCCCCC(=O)NC(=S)NC1C2CC3CC(C2)CC1C3 (stereo not given) | inconclusive [cytotoxic, single point] | 
CCOC(=O)CC1C(=O)NCCN1C(=O)COc1ccc(C(C)(C)C)cc1 (stereo not given) |  | inconclusive: -17.7% [cytotoxic]
Cc1ccc(S(=O)(=O)N2CCCCC2)cc1NC(=O)Cn1ncc(Cl)c(Cl)c1=O | active: 20.6 µM | 
N#Cc1nc(COc2ccc(-c3ccccc3)cc2)oc1NCc1cccnc1 | inconclusive [cytotoxic, single point] | 
CN(Cc1ccccc1OCCO)CC1CCCN(CCc2ccc(Cl)cc2)C1 (stereo not given) | inconclusive [cytotoxic, single point] | 
C[C@@H]1CCCCO[C@@H](CN(C)Cc2ccc(Cl)c(Cl)c2)[C@@H](C)CN([C@H](C)CO)C(=O)c2cc(NC(=O)CCC(F)(F)F)ccc2O1 | inconclusive [cytotoxic, partial curve] | 
CN1C(=S)N(c2cccnc2)C(=O)/C1=C\c1ccc(C(C)(C)C)cc1 | inconclusive [cytotoxic, single point] | 

SMILES | Potency | activity, negative = less viability
O=C(NCc1ccncc1)C1CCN(S(=O)(=O)Cc2ccccc2)CC1 | inactive | 
Cc1c(NC(=O)COC(=O)/C=C/c2ccccc2Br)c(=O)n(-c2ccccc2)n1C | inactive | 
C=CCN1C(=O)C2(NC(=O)c3ccccc3N2)c2ccccc21 (stereo not given) | inconclusive [cytotoxic, single point] | 
CCOP(=O)(c1ccccc1)c1nc(-c2ccccc2Cl)oc1N1CCCCC1 (stereo not given) | inconclusive [cytotoxic, single point] | 
O=C(c1cccc(S(=O)(=O)N2CCc3ccccc32)c1)N1CCc2ccccc2C1 | inactive | 
COC1CCN(Cc2cn(Cc3ccccc3)nc2-c2cc3ccccc3o2)CC1 | inconclusive [cytotoxic, single point] | 
Cc1cccc(CN2C(=O)NC(c3ccccc3)(c3ccccc3)C2=O)c1 | inconclusive [cytotoxic, single point] | 
COc1ccc(Cl)cc1CC1(C)C(=O)Nc2ccc(-c3ccccc3OC)cc21 (stereo not given) | inconclusive [cytotoxic, single point] | 
Cc1nn(-c2ccccc2)c(N)c1-c1ccccc1 | inactive | 
COc1ccccc1C(=O)NCC(c1cccs1)N1CCc2ccccc21 (stereo not given) | inactive | 
CCOc1ccc(Cl)cc1-c1cc(C(=O)NCc2cccs2)[nH]n1 |  | inconclusive: 0.253%
C/C=C/c1ccc(OCC(=O)Nc2ccc(OC)c(OC)c2)c(OC)c1 | inactive | 
C#CCSc1nnc(-c2ccc(OC)cc2)o1 | inconclusive [cytotoxic, single point] | 
Cc1ccc(CN2CCN(CC(=O)N/N=C/c3ccccc3F)CC2)cc1 | inactive | 
COCCCn1c(SCc2nnc(-c3ccccc3)o2)nc2sc3c(c2c1=O)CCC3 | inactive | 
Cc1cc(C)c2c(=O)n3c(nc2c1)C(Cc1ccc(O)cc1)NC(=O)c1cc2ccccc2cc1-3 (stereo not given) | inconclusive [cytotoxic, partial curve] | 
CCCCN1C(=O)C(CC(=O)NC2CCCC2)CC(C(=O)N(C(C)C)C(C)C)=C1C (stereo not given) | inactive | 
CCOc1ccc(N=Cc2ccccc2O)cc1 | inactive | 
Cc1ccc(Cc2cnc(N3C(=N)SC(c4ccccc4)C3=O)s2)cc1 (stereo not given) | inactive | 
CCc1ccc2c(CN(C)Cc3ccc(OC(F)F)c(OC)c3)cc(=O)oc2c1 | inactive | 
CCOC(=O)c1[nH]c2c(c1C)C(=O)CC(c1ccc(OCC)c(OC)c1)C2 (stereo not given) | inconclusive [cytotoxic, single point] | 
Cc1[nH]c(-c2ccc(F)cc2)cc1C(=O)N1CCN(c2ccccc2F)CC1 | inconclusive [cytotoxic, single point] | 
CCCc1nnc(NC(=O)CCS(=O)(=O)Cc2ccccc2)s1 |  | inconclusive: -15.8% [cytotoxic]
O=C(CON=C1c2ccccc2-c2ccccc21)NC12CC3CC(CC(C3)C1)C2 | inconclusive [cytotoxic, single point] | 

SMILES | Potency | activity, negative = less viability
Cc1noc(C)c1C(=O)N1CCC(C(=O)c2ccccc2)CC1 | inconclusive [rising, single point] | 
C/C(=N\NC(=O)c1c(C)nc2ccccn12)c1ccc(O)cc1O | inconclusive [cytotoxic, full curve] | 
O=C(c1ccc(F)cc1)C1CCN(C(=S)Nc2ccccc2Cl)CC1 | inconclusive [cytotoxic, single point] | 
COc1ccc(S(=O)(=O)N(CCCN2CCOCC2)Cc2cccc3ccccc23)cc1 | inconclusive [cytotoxic, single point] | 
CCN(CC)S(=O)(=O)c1ccc(O)c(NC(=O)c2cc(-c3cc(OC)c(OC)c(OC)c3)nc3ccccc23)c1 | inconclusive [cytotoxic, partial curve] | 
O=C(NCc1ccc(F)cc1)C(c1ccco1)N(C(=O)c1csnn1)C1CC1 (stereo not given) | inactive | 
Cc1ccc(OCCCCN2CCc3ccccc3C2)c(C)c1 | inconclusive [cytotoxic, single point] | 
NS(=O)(=O)c1ccc(CNC(=O)/C=C/c2ccc(S(=O)(=O)N3CCOCC3)cc2)cc1 | inactive | 
CC(C)(C)OC(=O)NCCc1nc(NC(=O)OCc2ccccc2)sc1C(=O)O | inactive | 
CCCNC(=O)COC(=O)c1ccccc1C(=O)c1ccc(Cl)c([N+](=O)[O-])c1 | active: 9.2 µM | 
C#Cc1ccccc1OCCCN1CCC(C(O)(c2ccccc2)c2ccccc2)CC1 | active: 16.4 µM | 
Cc1cccc(C)c1N(CC(=O)Nc1cc(Cl)ccc1Oc1ccccc1)S(C)(=O)=O | inactive | 
COc1cc(C(=O)Oc2ccccc2/C=N/NC(=O)c2ccc(Cl)cc2Cl)cc(OC)c1OC | inconclusive [cytotoxic, full curve] | 
O=C(c1ccccc1)c1ccc2n1CCC2C(=O)O (stereo not given) |  | inconclusive: 26.1%
CCCCNC(=O)C(NC(=O)c1cccnc1OC)C(=O)c1ccccc1 (stereo not given) | inactive | 
CCOc1ncccc1C(=O)Nc1ccc(C(=O)Nc2ccc(OC)cc2)cc1 | inconclusive [cytotoxic, partial curve] | 
CC(=NNC(=S)N1CCN(C2CCCCCC2)CC1)c1ccccn1 | active: 20.6 µM | 
N#C/C(=C\c1ccc(Cl)c([N+](=O)[O-])c1)c1ccccn1 | active: 14.6 µM | 
Cc1ccc(-c2csc(NCCn3c(C(F)(F)F)nc4ccccc43)n2)cc1 | inconclusive [cytotoxic, single point] | 
CCCC(C)NC(=O)COC(=O)c1ccc2c(c1)C(=O)N(Cc1ccco1)C2=O (stereo not given) | inconclusive [rising, single point] | 
O=C1c2cccc3cccc(c23)C(=O)N1CCN1CCN(CC(O)COc2ccc3ccccc3c2)CC1 (stereo not given) | inconclusive [cytotoxic, single point] | 
Fc1ccc(/C=N/Nc2nccnc2Cl)cc1 | inconclusive [cytotoxic, partial curve] | 
